Target: mCherry-RZZ (ROD-Zwilch-ZW10 complex, wild type) (UniProt P50748 1-2209; Q9H900 1-591; O43264 1-779)
Experiment: pull-down

Chain of UniProt P50748 (P50748 whole entry, chain 1 of 3): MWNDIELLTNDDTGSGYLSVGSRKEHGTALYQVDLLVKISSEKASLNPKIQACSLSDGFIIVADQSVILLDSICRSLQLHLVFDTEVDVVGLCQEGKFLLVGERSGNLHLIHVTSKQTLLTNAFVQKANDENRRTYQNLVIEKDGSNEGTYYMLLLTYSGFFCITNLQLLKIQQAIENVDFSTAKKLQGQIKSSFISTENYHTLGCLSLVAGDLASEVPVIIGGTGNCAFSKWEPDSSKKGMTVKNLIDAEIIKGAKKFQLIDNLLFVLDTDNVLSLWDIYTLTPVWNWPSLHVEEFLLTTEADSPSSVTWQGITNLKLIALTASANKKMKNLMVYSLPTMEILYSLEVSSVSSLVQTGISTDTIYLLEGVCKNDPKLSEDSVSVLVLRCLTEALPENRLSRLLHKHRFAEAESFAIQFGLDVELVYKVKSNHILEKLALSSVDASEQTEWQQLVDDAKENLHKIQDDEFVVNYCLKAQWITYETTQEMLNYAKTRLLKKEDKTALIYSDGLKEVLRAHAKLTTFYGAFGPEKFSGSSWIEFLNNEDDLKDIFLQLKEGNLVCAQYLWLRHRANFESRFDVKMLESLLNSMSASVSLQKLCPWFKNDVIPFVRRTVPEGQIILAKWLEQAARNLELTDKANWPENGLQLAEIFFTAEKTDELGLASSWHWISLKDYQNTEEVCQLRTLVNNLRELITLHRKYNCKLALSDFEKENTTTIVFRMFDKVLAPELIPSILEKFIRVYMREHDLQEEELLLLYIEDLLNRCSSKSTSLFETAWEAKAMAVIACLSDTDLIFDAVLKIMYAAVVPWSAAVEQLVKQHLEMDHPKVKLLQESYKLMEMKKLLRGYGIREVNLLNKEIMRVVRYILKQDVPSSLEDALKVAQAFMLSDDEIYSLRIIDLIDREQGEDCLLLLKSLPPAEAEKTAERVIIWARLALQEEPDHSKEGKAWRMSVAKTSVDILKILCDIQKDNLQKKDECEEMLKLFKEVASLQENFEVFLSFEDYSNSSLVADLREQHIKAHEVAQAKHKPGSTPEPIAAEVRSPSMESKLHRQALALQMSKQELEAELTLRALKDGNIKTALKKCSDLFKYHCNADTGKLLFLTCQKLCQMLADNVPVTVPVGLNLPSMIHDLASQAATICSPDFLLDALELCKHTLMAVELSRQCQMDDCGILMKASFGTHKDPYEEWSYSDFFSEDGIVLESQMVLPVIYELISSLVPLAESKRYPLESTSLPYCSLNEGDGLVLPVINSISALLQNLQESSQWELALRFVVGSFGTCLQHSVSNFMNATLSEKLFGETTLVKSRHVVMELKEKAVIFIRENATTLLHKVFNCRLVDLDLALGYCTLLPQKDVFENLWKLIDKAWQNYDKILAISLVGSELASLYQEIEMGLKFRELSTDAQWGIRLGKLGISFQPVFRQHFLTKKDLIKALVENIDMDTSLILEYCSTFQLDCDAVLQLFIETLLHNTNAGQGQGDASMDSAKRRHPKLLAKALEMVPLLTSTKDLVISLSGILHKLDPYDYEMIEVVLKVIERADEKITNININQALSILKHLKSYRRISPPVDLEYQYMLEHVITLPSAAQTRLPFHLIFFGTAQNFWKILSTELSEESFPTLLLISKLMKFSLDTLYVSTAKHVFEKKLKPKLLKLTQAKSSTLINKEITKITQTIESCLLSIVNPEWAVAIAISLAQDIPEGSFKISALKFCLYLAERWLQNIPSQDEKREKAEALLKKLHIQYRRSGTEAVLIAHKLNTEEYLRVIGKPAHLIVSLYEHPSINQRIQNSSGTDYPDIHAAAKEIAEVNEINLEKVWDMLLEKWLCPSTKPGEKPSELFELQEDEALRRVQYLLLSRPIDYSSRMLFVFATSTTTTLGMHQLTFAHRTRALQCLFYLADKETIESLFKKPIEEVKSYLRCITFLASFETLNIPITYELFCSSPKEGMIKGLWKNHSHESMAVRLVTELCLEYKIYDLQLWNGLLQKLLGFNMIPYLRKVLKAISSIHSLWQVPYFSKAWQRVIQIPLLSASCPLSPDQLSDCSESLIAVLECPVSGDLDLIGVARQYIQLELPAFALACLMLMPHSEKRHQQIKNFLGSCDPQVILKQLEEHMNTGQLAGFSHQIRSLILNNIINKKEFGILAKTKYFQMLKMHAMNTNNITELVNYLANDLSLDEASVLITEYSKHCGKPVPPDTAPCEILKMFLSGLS
Chain of UniProt P50748 (Q9H900 whole entry, chain 2 of 3, further chain): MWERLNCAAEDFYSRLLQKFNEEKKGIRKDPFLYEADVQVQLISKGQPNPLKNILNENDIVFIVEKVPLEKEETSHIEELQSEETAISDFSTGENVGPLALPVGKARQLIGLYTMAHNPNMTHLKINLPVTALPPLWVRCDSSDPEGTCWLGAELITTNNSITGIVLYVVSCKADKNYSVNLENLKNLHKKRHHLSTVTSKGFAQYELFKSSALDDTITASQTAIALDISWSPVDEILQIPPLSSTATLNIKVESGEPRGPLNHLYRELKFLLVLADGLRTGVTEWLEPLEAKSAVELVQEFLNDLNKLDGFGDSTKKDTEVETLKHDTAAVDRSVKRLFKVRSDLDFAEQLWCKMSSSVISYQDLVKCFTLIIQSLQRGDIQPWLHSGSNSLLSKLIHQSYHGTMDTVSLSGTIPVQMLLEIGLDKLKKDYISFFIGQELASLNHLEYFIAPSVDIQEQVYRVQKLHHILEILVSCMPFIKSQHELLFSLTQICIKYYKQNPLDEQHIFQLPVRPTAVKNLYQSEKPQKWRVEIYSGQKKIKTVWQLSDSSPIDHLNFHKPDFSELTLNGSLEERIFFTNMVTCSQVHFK
Chain of UniProt P50748 (O43264 whole entry, chain 3 of 3, further chain): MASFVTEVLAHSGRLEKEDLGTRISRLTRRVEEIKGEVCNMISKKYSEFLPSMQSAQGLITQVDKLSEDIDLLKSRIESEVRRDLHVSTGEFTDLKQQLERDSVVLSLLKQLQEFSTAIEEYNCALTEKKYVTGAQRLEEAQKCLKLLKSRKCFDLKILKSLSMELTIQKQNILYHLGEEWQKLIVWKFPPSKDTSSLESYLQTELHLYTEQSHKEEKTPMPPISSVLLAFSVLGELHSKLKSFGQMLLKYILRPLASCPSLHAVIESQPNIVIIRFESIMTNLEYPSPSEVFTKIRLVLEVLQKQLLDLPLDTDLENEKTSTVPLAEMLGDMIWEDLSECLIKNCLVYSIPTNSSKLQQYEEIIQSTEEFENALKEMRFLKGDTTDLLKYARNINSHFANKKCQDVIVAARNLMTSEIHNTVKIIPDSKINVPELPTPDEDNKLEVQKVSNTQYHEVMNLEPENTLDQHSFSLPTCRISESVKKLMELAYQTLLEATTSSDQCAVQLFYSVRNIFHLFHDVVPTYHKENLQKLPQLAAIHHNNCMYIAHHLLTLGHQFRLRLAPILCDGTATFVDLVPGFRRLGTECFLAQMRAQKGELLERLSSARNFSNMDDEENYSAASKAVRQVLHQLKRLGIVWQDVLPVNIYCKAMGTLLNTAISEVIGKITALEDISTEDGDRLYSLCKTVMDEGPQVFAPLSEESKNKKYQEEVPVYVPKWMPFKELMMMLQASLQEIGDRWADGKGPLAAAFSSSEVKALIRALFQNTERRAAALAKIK

- binding result: binds
B1: MBP-MAD1:MAD2, full length (complex)
chain 1: MEDLGENTMVLSTLRSLNNFISQRVEGGSGLDISTSAPGSLQMQYQQSMQLEERAEQIRSKSHLIQVEREKMQMELSHKRARVELERAASTSARNYEREVDRNQELLTRIRQLQEREAGAEEKMQEQLERNRQCQQNLDAASKRLREKEDSLAQAGETINALKGRISELQWSVMDQEMRVKRLESEKQELQEQLDLQHKKCQEANQKIQELQASQEARADHEQQIKDLEQKLSLQEQDAAIVKNMKSELVRLPRLERELKQLREESAHLREMRETNGLLQEELEGLQRKLGRQEKMQETLVGLELENERLLAKLQSWERLDQTMGLSIRTPEDLSRFVVELQQRELALKDKNSAVTSSARGLEKARQQLQEELRQVSGQLLEERKKRETHEALARRLQKRVLLLTKERDGMRAILGSYDSELTPAEYSPQLTRRMREAEDMVQKVHSHSAEMEAQLSQALEELGGQKQRADMLEMELKMLKSQSSSAEQSFLFSREEADTLRLKVEELEGERSRLEEEKRMLEAQLERRALQGDYDQSRTKVLHMSLNPTSVARQRLREDHSQLQAECERLRGLLRAMERGGTVPADLEAAAASLPSSKEVAELKKQVESAELKNQRLKEVFQTKIQEFRKACYTLTGYQIDITTENQYRLTSLYAEHPGDCLIFKATSPSGSKMQLLETEFSHTVGELIEVHLRRQDSIPAFLSSLTLELFSRQTVA
chain 2: [in this place about 200 residues]

— article doi:10.1101/2025.06.17.660062 (bioRxiv, 2025)
